Values joined by “and” are separate entries in the source; they are usually repeats but may differ in a detail not shown here. Equal values may be shown once.
Biological target: FITC-RGS14 GoLoco motif peptide (UniProt O08773)
Experiment: fluorescence polarisation

Chain of UniProt O08773 (O08773 497-519): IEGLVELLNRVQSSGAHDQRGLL

- Kd: 45 nM and 168 nM
Substance: Gαi1(G42R), full-length, hexahistidine-tagged (a stretch of the chain, no sequence given) (natural protein)

— paper PMC3285607
